Experimental data published in PMC4336329 (PLoS ONE, 2015).
Screen size: about 310,000 compounds; about 14,000 (4.5%) showed an effect of 50% or more. Effects have a minus sign here. Some of the results follow.

Biological target: human ether-à-go-go-related gene (hERG) potassium channel (human, UniProt Q12809)
Test: primary screen, population patch clamp on CHO cells stably expressing hERG
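Note: peak tail current of the secondary pulse compared with the same well before compound.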

Sequence of human ether-à-go-go-related gene (hERG) potassium channel (Q12809 whole entry, looked up): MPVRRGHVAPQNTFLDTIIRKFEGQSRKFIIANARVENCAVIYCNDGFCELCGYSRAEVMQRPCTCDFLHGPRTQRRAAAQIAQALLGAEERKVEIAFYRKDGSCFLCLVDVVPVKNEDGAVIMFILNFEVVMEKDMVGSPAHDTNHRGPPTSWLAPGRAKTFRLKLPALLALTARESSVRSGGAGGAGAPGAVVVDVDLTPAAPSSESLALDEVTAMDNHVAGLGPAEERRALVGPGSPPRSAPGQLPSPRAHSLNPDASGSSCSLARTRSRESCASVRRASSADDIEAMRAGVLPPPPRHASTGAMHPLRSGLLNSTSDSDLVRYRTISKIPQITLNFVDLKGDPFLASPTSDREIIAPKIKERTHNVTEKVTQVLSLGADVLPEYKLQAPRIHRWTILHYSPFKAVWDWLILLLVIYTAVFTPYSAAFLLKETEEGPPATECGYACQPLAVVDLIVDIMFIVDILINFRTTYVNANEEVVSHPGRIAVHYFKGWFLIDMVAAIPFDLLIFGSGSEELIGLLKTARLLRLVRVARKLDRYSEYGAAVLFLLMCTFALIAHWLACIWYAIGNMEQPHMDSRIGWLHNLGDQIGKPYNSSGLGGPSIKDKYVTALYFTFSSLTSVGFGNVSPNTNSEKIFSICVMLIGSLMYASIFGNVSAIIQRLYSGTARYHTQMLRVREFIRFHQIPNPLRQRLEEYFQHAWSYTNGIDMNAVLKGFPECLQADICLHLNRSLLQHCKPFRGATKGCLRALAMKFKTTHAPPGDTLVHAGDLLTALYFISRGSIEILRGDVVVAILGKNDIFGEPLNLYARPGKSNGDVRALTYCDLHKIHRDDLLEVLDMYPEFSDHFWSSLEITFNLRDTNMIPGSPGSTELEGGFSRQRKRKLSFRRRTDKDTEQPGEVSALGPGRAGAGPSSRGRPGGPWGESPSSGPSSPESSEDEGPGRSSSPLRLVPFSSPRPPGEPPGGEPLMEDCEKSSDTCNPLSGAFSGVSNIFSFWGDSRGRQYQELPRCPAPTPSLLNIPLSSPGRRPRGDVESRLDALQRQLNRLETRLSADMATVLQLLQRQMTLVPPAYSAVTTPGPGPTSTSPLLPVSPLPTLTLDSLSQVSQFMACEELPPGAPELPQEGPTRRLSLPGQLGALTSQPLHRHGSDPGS

Row | SMILES | hERG current change (%, negative = inhibition) at 10uM [%]
1 | Cc1cc(C(=O)NCCCN2CC(C)CC(C)C2)n(-c2ccccc2)n1 (centres unmarked) | -20.2
2 | Cc1ccc(C)c(Cn2nnc3c(=O)[nH]c(C4CCN(S(=O)(=O)c5ccc(S(=O)(=O)N(C)C)cc5)CC4)nc32)c1 | 31.1
3 | CCCCSc1nnc(CCNC(=O)OC(C)(C)C)o1 | 7.42
4 | CC(C)Cn1c(O)c(/C=C2\C=NN=C2c2ccccc2)sc1=S | 11.6
5 | CCOc1ccc(N(C(=O)CNC(=O)c2ccco2)C(C(=O)NC2CCCC2)c2ccncc2)cc1 (centres unmarked) | -10.7
6 | CC(C)[C@]12CC(=O)[C@H](C)[C@H]1C2 | 16.5
7 | CC#CC(=O)NC1CCCN(C2Cc3ccccc3C2)C1 (centres unmarked) | -18.7
8 | Cc1ccccc1OCc1nnc(SCC(=O)N2c3ccccc3Sc3ccc(Cl)cc32)o1 | 10.2
9 | CN(CCC1CCCCO1)C(=O)CCc1nnc(CCc2ccccc2)o1 (centres unmarked) | 6.83
10 | Cc1nn(CC(=O)NC2CCC(C)CC2)c(=O)c(C#N)c1C (centres unmarked) | -1.66
11 | NC(=O)C(c1ccc(F)cc1)c1ccc(C(=O)c2ccccc2)cc1 (centres unmarked) | -11.5
12 | OC(CN1CCN(Cc2ccccc2)CC1)c1ccc(Br)cc1 (centres unmarked) | -67.9
13 | Cn1ccc(NC(=O)c2ccc(Cl)cc2)n1 | 5.16
14 | O=C(Nc1cccc(Br)c1)c1cc2ccccc2o1 | -3.25
15 | O=C(NCc1ccc2c(c1)OCO2)Nc1ccc(Cl)cc1 | 5.12
16 | COc1ccccc1NC(=O)c1c(N=Cc2ccccc2O)cnn1C | 5.36
17 | O=S(=O)(/N=C(/Nc1ccc(F)cc1F)c1ccccc1)c1ccc(Br)cc1 | 12.3
18 | Cc1ccc(NS(=O)(=O)c2ccc3c(c2)NC(=O)CCS3)c(Br)c1 | -1.14
19 | O=C(Oc1c(-c2ccccc2)c(=O)n2c3c(cccc13)CC2)c1cccc([N+](=O)[O-])c1 | 0.198
20 | CCOC(=O)c1sc(N2N=C(C)/C(=C\c3ccc(OCC(=O)OC)cc3)C2=O)nc1C | 22
21 | Cc1nc2ccccc2c(=O)n1/N=C/c1ccc2ccccc2c1O | 10.9
22 | O=C(Nc1ncc(Br)s1)C(Cc1ccccc1)n1cccc1 (centres unmarked) | -3.05

Row | SMILES | hERG current change (%, negative = inhibition) at 10uM [%]
23 | COc1ccccc1CNC(=O)c1sccc1-c1ccccc1 | -6.16
24 | Cc1ccc(CCCOC(=O)C[N+]2(C)CCCCC2)cc1.[I-] | 0.583
25 | O=C(O)c1ccc(NS(=O)(=O)c2cccc3nsnc23)cc1 | 7.4
26 | COC(=O)C1=C(C)N(CCc2ccc(OC)c(OC)c2)C(=O)/C1=C\c1ccc(O)cc1 | 19.3
27 | Cc1cc(C(=O)CSc2nncs2)c(C)n1-c1ccc2c(c1)OCO2 | -15.8
28 | COc1ccc(OCC(O)CNC(=O)Nc2ccc(C(C)(C)C)cc2)cc1 (centres unmarked) | 1.15
29 | CC(=O)C1=C(O)CC(c2ccccc2)CC1=NCCc1c(C)[nH]c2ccc(C)cc12 (centres unmarked) | -11.3
30 | COc1cc(/C=C/C(=O)OCC(=O)N2CCC(C)CC2)ccc1O | -0.556
31 | CC(C)CNC(=S)N1CCC(NC(=O)c2ccco2)CC1 | -65.7
32 | O=C(O)c1cc2nc(-c3ccccc3)cc(C(F)(F)F)n2n1 | -1.04
33 | COc1ccc(-c2noc(CN3C(=O)c4ccccc4C3=O)n2)cc1 | -9.16
34 | CN(Cc1nc(-c2cnccn2)no1)Cc1n[nH]c2c1CCCCC2 | -0.424
35 | C=C1CCN([C@@H](CC(C)C)C(=O)NCc2ccco2)S(=O)(=O)c2ccccc21 | 2.79
36 | CCCCCn1c(=NC(=O)c2ccco2)c(C(=O)OCC)cc2c(=O)n3ccccc3nc21 | -73.5
37 | CCc1ccn2cc(-c3cc(-c4ccccc4)no3)nc2c1 | 5.11
38 | O=C(Nc1ccccc1C(=O)N/N=C/c1ccco1)c1ccc(Cl)cc1 | 2.77
39 | O=C(O)CCC(=O)N1CC=C(c2ccccc2)CC1 | 6.07
40 | CCCCOc1ccc(-c2ncc([N+](=O)[O-])cn2)cc1 | 0.41
41 | COC(C(=O)Nc1ccnn1C1CCN(Cc2ccc(C)s2)CC1)c1ccccc1 (centres unmarked) | -50.8
42 | CCOC(=O)C1CCN(C(=O)COC(=O)c2ccc(=O)n(Cc3ccccc3)n2)CC1 | -10.7
43 | Cc1cc(C)c(C)c(S(=O)(=O)N2CCN(CC(=O)c3c(N)n(Cc4ccccc4)c(=O)n(C)c3=O)CC2)c1C | -10.2
44 | COc1ccccc1/C=C/CN1CCC(Oc2cc(C(=O)NC3CC3)ccc2OC)CC1 | -76.5
